# From PubChem BioAssay AID624171 (National Center for Advancing Translational Sciences (NCATS), 2012)
# Hit rate of the full screen: of about 410,000 compounds, about 1,200 (0.29%) were called active. The inconclusive results got no clear call from the source; some entries with a clear call stand among them for comparison. Calls follow the shape of the dose curve; as a rule, active = well fitted activation curve with a large enough effect; inconclusive = small, poorly fitted or top-dose-only effect; inactive = flat fitted curve, though single readings scatter. Potencies of inconclusive entries are doubtful fits and often do not repeat.
# Assay: qHTS of Nrf2 Activators; also: nearly all actives have a fitted effect of over 65% in size; as to activation: % of control where 0% means no effect
# Conditions: AREc32 ARE-luciferase reporter (MCF7-derived line), luminescence, 24 h; activation: at 46.1 µM (top of the series)
# How it was run: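 AREc32 cells carrying an ARE-driven firefly luciferase, 1000 cells/well in OPTI-MEM with 5% FBS, dosed after overnight attachment and incubated 24 hr at 37 deg C. Steady-Glo luminescence read after 30 min at RT.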
# Potency is read from the fitted curve at half-maximal effect; tags tell the direction and shape of the fitted curve.
Compound,Potency,activation
O=C(Oc1cccc(-c2cnc3ccccc3n2)c1)c1ccco1,"inconclusive: 6.31 µM [activator, partial curve]",
O=C(CSc1ncnc2c1nnn2-c1ccc(F)cc1)NCc1ccco1,"inconclusive: 20 µM [activator, single point]",
Cc1ccnc(N(C(=O)c2cccs2)C(=O)c2cccs2)c1,active: 10 µM,
COc1ccc(OC)c(-c2cc(C(=O)Nc3cccc(Cl)c3)no2)c1,"inconclusive: 3.16 µM [activator, single point]",
CCc1ccc(CNC(=O)c2ccc(-n3c(C)cc4c3CCC(C)C4)cc2)cc1 (stereo not given),"inconclusive: 14.1 µM [activator, single point]",
Cc1cccc(N/C=C/c2onc(C)c2[N+](=O)[O-])c1,"inconclusive: 20 µM [activator, partial curve, poor fit]",
Cc1noc(C)c1C(=O)N1CCC1(C)C(=O)NS(=O)(=O)c1ccccc1C(F)(F)F (stereo not given),,inactive: 0.363%
CCCc1cc(=O)oc2cc(OCC(=O)Nc3ccccn3)ccc12,"inconclusive: 14.1 µM [activator, partial curve, poor fit]",
O=C(N/N=C/C(Br)=C/c1ccccc1)NC1CCCCC1,"inconclusive: 20 µM [activator, single point]",
COc1ccc2c(c1)O/C(=C\c1ccco1)C2=O,"inconclusive: 12.6 µM [activator, partial curve, poor fit]",
O=C(/C(C=Nc1ccc(F)cc1)=C(/O)c1ccco1)C(F)(F)F,"inconclusive: 3.55 µM [activator, full curve, poor fit]",
c1coc(CNc2ncnc3c2oc2ccccc23)c1,active: 1.58 µM,
O=C(c1ccccc1NS(=O)(=O)c1ccc([N+](=O)[O-])cc1[N+](=O)[O-])N1O[C@@H]2C=C[C@H]1C2,"inconclusive: 28.2 µM [activator, single point]",
S=c1[nH]nc(-c2ccc(Cl)cc2)n1/N=C/C=C/c1ccco1,"inconclusive: 8.91 µM [activator, partial curve, poor fit]",
CC(CC(=O)NCc1ccc(Cl)cc1Cl)CC1=NS(=O)(=O)c2ccccc2N1 (stereo not given),,inactive: 0.901%
O=C(CN1C(=O)/C(=C/c2ccccc2F)Sc2ccccc21)NCC1CCCO1 (stereo not given),"inconclusive: 11.2 µM [activator, partial curve]",
C/C(=N/NC(=O)c1ccc(Br)o1)c1ccc(C)o1,"inconclusive: 12.6 µM [activator, partial curve, poor fit]",
O=C(NCc1ccco1)c1ccc2nccnc2c1,"inconclusive: 5.62 µM [activator, partial curve]",
COc1cc(NC(=O)c2cccc(Br)c2)nc(OC)n1,active: 14.1 µM,
O=C(CSc1ncnc2c1nnn2Cc1ccc(F)cc1)NCC1CCCO1 (stereo not given),"inconclusive: 35.5 µM [activator, single point]",
COc1ccc(-c2nc3ccccc3s2)cc1NC(=O)c1cccc([N+](=O)[O-])c1C,"inconclusive: 17.8 µM [activator, single point]",
Cn1c2ccccc2c2c(C(=O)NCc3ccco3)cn(C3CCCCC3)c(=O)c21,"inconclusive: 14.1 µM [activator, single point]",
FC(F)(F)c1nc2ccccc2nc1N/N=C\c1ccccc1,"inconclusive: 12.6 µM [activator, partial curve, poor fit]",

Compound,Potency,activation
CCC(=O)Nc1ccc(/C=C(\C(C)=O)C(=O)c2ccccc2)cc1,"inconclusive: 31.6 µM [activator, single point]",
C[C@H](NC(=O)c1nc[nH]c1C(=O)NCCCCCNC(=O)OC(C)(C)C)C(=O)OCc1ccccc1,,inactive: -0.004%
O=C1CCCN2N=C(SCC(=O)Nc3cccc(C(F)(F)F)c3)SC2=N1,,inactive: 6.16%
Cn1cnc([N+](=O)[O-])c1Oc1ccc2ccccc2c1,"inconclusive: 28.2 µM [activator, single point]",
CC(C)OC(=O)c1ccc(NCc2cc(O)ccc2O)cc1Cl,"inconclusive: 17.8 µM [activator, partial curve, poor fit]",
COc1ccc2nc(-c3ccccc3)cc(C(=O)OCC(=O)NC3CC3)c2c1,,inactive: 3.2%
CC1=C(C(=O)Nc2ccccc2)C(c2ccc(C)o2)n2c(s/c(=C/c3ccccc3)c2=O)=N1 (stereo not given),,inactive: 0.223%
N#CC1=C(N)Oc2c(sc3ccccc23)C1c1ccco1 (stereo not given),active: 3.16 µM,
C/C(=N\Nc1cccc([N+](=O)[O-])c1)c1cc(F)ccc1O,"inconclusive: 12.6 µM [activator, single point]",
COc1ccc(C(C#N)N2N=C(c3ccccc3)CC2c2ccccc2)cc1OC (stereo not given),"inconclusive: 20 µM [activator, single point]",
O=C1/C(=C/c2ccco2)SC(=S)N1CCC(=O)N1CCCCC1CCO (stereo not given),"inconclusive: 6.31 µM [activator, partial curve]",
Oc1cccc(/C=C/c2ccc3cccc(O)c3n2)c1,active: 4.47 µM,
O=C(NC(=S)Nc1cccc(NC(=S)NC(=O)c2ccco2)n1)c1ccco1,active: 6.31 µM,
COc1cc(C(=O)N/N=C/c2ccc(OC(=O)c3ccccc3Cl)c(OC)c2)ccc1O,,inactive: 3.18%
CCN(c1cccc(C)c1)S(=O)(=O)c1c(C)[nH]c(=O)[nH]c1=O,,inactive: 0.0992%
COc1cc(/C=N/NC(=O)c2cnn3c(C)cc(-c4ccccc4)nc23)ccc1O,,inactive: 2.3%
COc1ccc(CN(C)Cc2c(O)ccc3cc(Br)ccc23)cc1OC,"inconclusive: 15.8 µM [activator, single point]",
N#C/C(=C\c1ccccn1)c1ccccn1,active: 22.4 µM,
Cc1nc2c(C(=O)NCc3ccccc3Cl)c[nH]n2c(=O)c1Cc1cccc(Cl)c1,,inactive: 0.623%
O=C(Nc1nnc(C2=COCCO2)o1)c1cccc(C(F)(F)F)c1,"inconclusive: 22.4 µM [activator, single point]",
O=[N+]([O-])c1ccc(CNc2cccc(F)c2)s1,"inconclusive: 20 µM [activator, single point]",
CC(=O)c1cc(C(=O)c2ccccc2)sc1Nc1ccccc1,"inconclusive: 7.94 µM [activator, partial curve]",
